# Data taken from PubChem BioAssay AID686970 (National Center for Advancing Translational Sciences (NCATS), 2013).
# “And” between values parts separate entries of the source, which are not always exact repeats. Identical values can stand only once. Screen size: about 360,000 compounds; about 6,000 (1.7%) were called active. Inconclusive results, whose numbers are uncertain, are shown with a selection of clear calls. Calls come from the whole dose curve; as a rule, active = well fitted cell-killing curve with a large enough effect; inconclusive = small, poorly fitted or top-dose-only effect, or effect the other way; inactive = flat fitted curve, though single readings scatter. Potencies of inconclusive entries are doubtful fits and often do not repeat.
# Experiment: qHTS for induction of synthetic lethality in tumor cells producing 2HG: qHTS for the HT-1080-NT fibrosarcoma cell line;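 note: NT is the 2HG producing partner of a matched IDH1 knockdown line; nearly all actives have a fitted effect of over 55% in size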;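 for activity, negative = less viability: 0% = DMSO-treated cells and -100% = media-only wells without cells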
# Settings: HT-1080-NT fibrosarcoma viability, CellTiter-Glo ATP luminescence, 48 h; activity, negative = less viability: at 46.1 µM (top of the series) unless noted
# Outline: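 Compounds were tested in concentration-response format on HT-1080-NT cells for 48 hours at 37 degrees C. Cell viability came from CellTiter-Glo luminescence; curves were classified by r2, response magnitude and activity.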
# Potency is the fitted concentration of half-maximal effect; tags give direction and shape of the fitted curve.
Compound,Potency,"activity, negative = less viability"
COc1ccccc1NC(=O)Cn1nc(-c2ccncc2)nc1SCC(=O)NC1CCCC1,inactive,–
COc1ccc(NS(=O)(=O)c2cccc(C(=O)NCC(c3ccc(OC)cc3)N3CCCC3)c2)cc1 (centres undefined),"inconclusive: 20.6 µM [cytotoxic, single point]",–
O=C(Nc1nnc(C2CC2)s1)c1ccccn1,active: 7.08 µM,–
Cc1ccc(S(=O)(=O)NC2CC2)cc1,inactive,–
CC(C)N(C)c1ncnc2c1ncn2[C@H]1CN(Cc2ccc(Cl)cc2)C[C@@H](CO)O1,inactive,–
C[C@@H]1CN([C@H](C)CO)C(=O)c2c(c3ccccc3n2C)-c2ccccc2CO[C@H]1CN(C)Cc1ccccc1,"inconclusive: 16.4 µM [cytotoxic, partial curve]",–
COc1cccc(/C=C2\SC(=O)N(CCC(=O)NNC(=O)c3cccc(Cl)c3)C2=O)c1,"inconclusive: 23.1 µM [cytotoxic, single point]",–
CCN(CC)c1ccc(/C=N/NC(=O)c2c(Cl)cnn2C)c(O)c1,"inconclusive: 1.16 µM [cytotoxic, full curve]",–
COc1cc(NC(=S)NC(C)(C)C)c(OC)cc1Cl,inactive,–
COCOc1cc(O)c(C(=O)/C=C/c2ccccc2)c(OCOC)c1,"inconclusive: 18.4 µM [cytotoxic, single point]",–
COC(=O)/C(=C\c1ccc([N+](=O)[O-])o1)NC(=O)c1ccccc1,"inconclusive: 35.5 µM [cytotoxic, single point]",–
Cc1cc(C)cc(NC(=O)N2CCCN(c3c(Cl)cncc3Cl)CC2)c1,"inconclusive: 18.4 µM [rising, single point]",–
CCOC(=O)c1c(CC(C)C)csc1/N=C/C1C(=O)CCCC1=O,"inconclusive: 18.4 µM [cytotoxic, single point]",–
COc1ccc(CN(C)CCCn2cnc(C(=O)Nc3ccc(C)c(C)c3)n2)cc1OC,inactive,–
COc1cccc(NC(=O)CN(C)C(=O)c2ccc3ccccc3c2)c1,inactive,–
CCc1ccccc1OCC(=O)Nc1cc(S(=O)(=O)N2CCOCC2)ccc1N1CCCCC1,"inconclusive: 16.4 µM [cytotoxic, single point]",–
CC(C)OC(=O)Nc1ccc2c(c1)N(C(=O)N1CCN(C)CC1)c1ccccc1CC2,active: 23.1 µM,–
Cc1c(C(=O)N2CCN(S(=O)(=O)c3cc(F)ccc3F)CC2)oc2ccccc12,inactive,–
Nc1[nH]c(C(=O)c2ccccc2)c(-c2ccccc2Br)c1C(=O)c1ccccc1,"inconclusive: 29.1 µM [cytotoxic, single point]",–
O=C(NCCCCc1ccccc1)Nc1cccc(F)c1,"inconclusive: 18.4 µM [cytotoxic, single point]",–
O=C(Nc1cccc2ncccc12)C12CC3CC(CC(C3)C1)C2,inactive,–
Cc1cc(C)n(CC(O)COc2ccccc2C)n1 (centres undefined),"inconclusive: 7.31 µM [rising, partial curve]",–
O/C=c1\ccc2cccc3nc(C(F)(F)F)nc1c23,inactive,–
CCCCS(=O)(=O)Nc1ccc(N2CCOCC2)c(S(=O)(=O)N2CCOCC2)c1,inactive,–
COc1ccc(NS(=O)(=O)c2cc([N+](=O)[O-])ccc2N/N=C/c2c(C)[nH]c3ccccc23)cc1,inactive,–

Compound,Potency,"activity, negative = less viability"
CCn1c(SCC(=O)Nc2cccc(NC(C)=O)c2)nc2c([nH]c3ccccc32)c1=O,"inconclusive: 20.6 µM [cytotoxic, single point]",–
CCOc1ccc(C(C)=O)cc1COC(=O)c1ccccc1C(=O)N(C)Cc1ccccc1,inactive,–
O=C1c2ccccc2NC(c2ccc(-c3ccc(Br)cc3)o2)N1O (centres undefined),active: 7.94 µM,–
COc1ccc(CCNC(=O)COC(=O)/C=C/c2cc(OC)c(OC)c(OC)c2)cc1OC,inactive,–
O=C(c1cccs1)N1CCN(c2ncc(C(F)(F)F)cc2Cl)CC1,inactive,–
O=C1CC(c2ccco2)CC2=C1C1c3ccccc3C(=O)N1c1ccccc1N2 (centres undefined),"inconclusive: 13 µM [cytotoxic, partial curve]",–
CC1CCCN(C(=O)CSc2ncccn2)C1 (centres undefined),inactive,–
COc1ccccc1NS(=O)(=O)c1cc([N+](=O)[O-])ccc1N/N=C/c1c[nH]c2ccccc12,"inconclusive: 29.1 µM [cytotoxic, single point]",–
COc1ccccc1N1CCN(S(=O)(=O)c2ccc3c4c(cccc24)C(=O)N3)CC1,"inconclusive: 5.62 µM [cytotoxic, full curve]",–
COc1ccc(C=C(C(C)=O)C(=O)c2ccccc2)cc1,active: 23.1 µM,–
O=CNc1cc(-c2ccc(C(=O)NC3CC3)cc2)cn2c(-c3ccc(F)c(Cl)c3)cnc12,"inconclusive: 25.9 µM [cytotoxic, single point]",–
O=C(NCCCN1CCCC1)c1ccc2c(Cl)c3c(nc2c1)CCCC3,active: 18.4 µM,–
C[C@H]1CN([C@@H](C)CO)S(=O)(=O)c2ccc(Br)cc2O[C@@H]1CN(C)Cc1cccc(F)c1,–,inconclusive: -30.2% [cytotoxic]
CCOC(=O)C(Cc1c[nH]c2cc([N+](=O)[O-])ccc12)(NC(C)=O)C(=O)OCC,inactive,–
C#Cc1ccc([C@H]2C=C(C(=O)N3CCN(Cc4ccccc4)CC3)O[C@@H](OCc3ccc(CO)cc3)C2)cc1,"inconclusive: 20.6 µM [cytotoxic, single point]",–
CCCn1c2c(c(O)c(C(=O)NCCCN(CC)CC)c1=O)CCCC2,"inconclusive: 25.9 µM [cytotoxic, partial curve]",–
COc1ccc(NC(=O)CCN2CCN(S(=O)(=O)c3ccc(F)cc3)CC2)cc1,inactive,–
COc1cccc(/C=N/N=C(\N)c2nonc2N)c1O,–,inconclusive: -51.8%
COc1ccc(/C=N/n2c(-c3cc(C)[nH]n3)n[nH]c2=S)cc1,inactive,–
CC1CN(C(=O)Cn2cc(S(=O)(=O)CC(=O)N3CCOCC3)c3ccccc32)CC(C)O1 (centres undefined),inactive,–
CCn1c(C)nc2cc(NC(=O)Nc3cccc(C(C)=O)c3)ccc21,inactive,–
CC(C)NC(=O)NC(=O)COC(=O)c1c2c(nc3ccccc13)CCC2,"inconclusive: 25.9 µM [cytotoxic, partial curve]",–
Cc1oc(-c2cccc(Cl)c2)nc1CN1CCC(C(=O)NCc2cccnc2)CC1,inactive,–
COc1ccc2nc(SCC(=O)N3CC(=O)Nc4ccccc43)c(C#N)cc2c1,"inconclusive: 3.66 µM [cytotoxic, full curve]",–
CC(C)Cn1c(N)c(C(=O)CSc2nncs2)c(=O)n(C)c1=O,–,inactive: 0.487% [at 9.24 µM]

Compound,Potency,"activity, negative = less viability"
CCCCn1nc(NC(=O)COC)c2cc3cc(OC)ccc3nc21,inactive,–
O=C(NCC(c1ccco1)N1CCc2ccccc21)c1ccccc1F (centres undefined),inactive,–
Cc1ccc(NS(=O)(=O)c2cc(Br)cnc2N)cc1C,"inconclusive: 18.4 µM [cytotoxic, single point]",–
CC(C)NC(=O)C1(C)CCCCN1Cc1ccc(OCc2ccccc2)cc1 (centres undefined),"inconclusive: 29.1 µM [cytotoxic, single point]",–
O=C(Nc1ccn(Cc2ccccc2F)n1)c1ccc(COc2ccc(Br)cc2)cc1,"inconclusive: 17.8 µM [cytotoxic, single point]",–
CCCCCn1c(=O)[nH]c2cc(C(=O)NCCCN3CCCCC3C)ccc2c1=O (centres undefined),active: 23.1 µM,–
NC(Cc1ccc(Cl)cc1)c1csc(NC(=O)Nc2ccccc2-c2ccccc2)n1 (centres undefined),"inconclusive: 16.4 µM [cytotoxic, single point]",–
CCCCNc1c(-c2ccc(SC(C)CC)cc2)nc2ccccn12 (centres undefined),"inconclusive: 29.1 µM [cytotoxic, single point] and inconclusive: 23.1 µM [cytotoxic, single point]",–
CCOc1cccc(-c2cc(=O)[nH][nH]2)c1,inactive,–
O=C(CCc1ccc(O)cc1)NN=Cc1cc(Br)ccc1O,"inconclusive: 25.9 µM [cytotoxic, partial curve]",–
COc1ccc(-n2c(C)cc(C(=O)CSc3nn4c(=O)c(C(C)(C)C)nnc4s3)c2C)cc1,inactive,–
CCCCNc1c(-c2ccc(SC(C)CC)cc2)nc2cnccn12 (centres undefined),"inconclusive: 25.9 µM [cytotoxic, single point]",–
CC(C)CN=c1cc(-c2ccccc2)oc2ccc(Cl)cc12,"inconclusive: 23.1 µM [cytotoxic, single point]",–
COc1ccccc1NC(=O)c1ccc(NC(=O)Cc2n[nH]c(=O)c3ccccc23)cc1,inactive,–
CC(C(O)c1ccc(O)cc1)N1CCC(Cc2ccccc2)CC1 (centres undefined),"inconclusive: 18.4 µM [cytotoxic, single point]",–
CCN(C(=O)COC(=O)CCNS(=O)(=O)c1ccccc1F)c1c(N)n(Cc2ccccc2)c(=O)[nH]c1=O,inactive,–
N=c1n(CCO)c2ccccc2n1CCOc1ccc(Cl)cc1Cl,active: 20.6 µM,–
CN1CCN(C(=O)c2ccc(Cn3cc(Cl)cn3)o2)CC1,"inconclusive: 13 µM [rising, partial curve]",–
CCn1c2ccccc2c2cc(/C=N/NC(=O)c3ccc(O)cc3)ccc21,"inconclusive: 13 µM [cytotoxic, partial curve]",–
COc1cc2c(cc1OC)CN(C(=O)CCCOc1ccc(Cl)cc1Cl)CC2,"inconclusive: 35.5 µM [cytotoxic, single point]",–
N#Cc1ccc(CN2CCN(C(=O)C3CC(=O)N(c4ccc5c(c4)OCCO5)C3)CC2)cc1 (centres undefined),inactive,–
Cn1nnc2cc(C(=O)Nc3cccnc3)ccc21,"inconclusive: 11.6 µM [rising, partial curve]",–
CC(=O)NNc1ncnc2c1cnn2-c1ccc(C)c(C)c1,–,inconclusive: 24.1%
Cc1ccc2c(c1)[C@H]1[C@H](CO2)[C@H](c2ccccc2)[C@]2(C)C(=O)Nc3cc(F)c(F)cc3C(=O)N12,"inconclusive: 20.6 µM [cytotoxic, single point]",–
